According to the supplement of paper PMC8728848:
Some of the results follow.

How the values were obtained:
Experiment in all cases: glycan array binding signal (z-score within array); higher = stronger binding
Conditions in all cases: glycan notation: IUPAC condensed, linker removed
[1] = target: GalNAc(b1-4)GlcNAc(b1-2)Man
Procedure, shortened: (§1)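 Arrays were curated from the Consortium for Functional Glycomics database, 3228 in total, and kept only where the protein sequence was available. Binding is expressed as a within-array Z-score. This score was averaged across arrays of the same protein sequence at different concentrations or buffers and across linkers, and negative values can be read as non-binding.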

[2] = target: GalNAc(b1-4)GlcNAc(b1-2)Man(a1-3)[GalNAc(b1-4)GlcNAc(b1-2)Man(a1-6)]Man(b1-4)GlcNAc(b1-4)GlcNAc
Procedure, shortened: as §1

[3] = target: GalNAc(b1-4)GlcNAc(b1-3)GalNAc(b1-4)GlcNAc
Procedure, shortened: as §1

GalNAc(b1-4)GlcNAc6S = target: GalNAc(b1-4)GlcNAc6S
Procedure, shortened: as §1

GalNAc(b1-6)GalNAc = target: GalNAc(b1-6)GalNAc
Procedure, shortened: as §1

GalNAc3S(b1-4)GlcNAc = target: GalNAc3S(b1-4)GlcNAc
Procedure, shortened: as §1

GalNAc3S(b1-4)GlcNAc3S = target: GalNAc3S(b1-4)GlcNAc3S
Procedure, shortened: as §1

[4] = target: GalNAc3S(b1-4)[Fuc(a1-3)]GlcNAc
Procedure, shortened: as §1

GalNAc4S6S(b1-4)GlcNAc = target: GalNAc4S6S(b1-4)GlcNAc
Procedure, shortened: as §1

GalNAc6S(b1-4)GlcNAc = target: GalNAc6S(b1-4)GlcNAc
Procedure, shortened: as §1

Glc(a1-4)Glc = target: Glc(a1-4)Glc
Procedure, shortened: as §1

[5] = target: Glc(a1-4)Glc(a1-4)Glc(a1-4)Glc
Procedure, shortened: as §1

Glc(a1-6)Glc(a1-6)Glc = target: Glc(a1-6)Glc(a1-6)Glc
Procedure, shortened: as §1

[6] = target: Glc(a1-6)Glc(a1-6)Glc(a1-6)Glc
Procedure, shortened: as §1

Glc(b1-4)Glc = target: Glc(b1-4)Glc
Procedure, shortened: as §1

Glc(b1-6)Glc = target: Glc(b1-6)Glc
Procedure, shortened: as §1

GlcA(b1-3)Gal = target: GlcA(b1-3)Gal
Procedure, shortened: as §1

GlcA(b1-3)GlcNAc = target: GlcA(b1-3)GlcNAc
Procedure, shortened: as §1

GlcA(b1-6)Gal = target: GlcA(b1-6)Gal
Procedure, shortened: as §1

[7] = target: GlcA3S(b1-3)Gal(b1-4)GlcNAc(b1-2)Man
Procedure, shortened: as §1

[8] = target: GlcA3S(b1-3)Gal(b1-4)GlcNAc(b1-3)Gal(b1-4)Glc
Procedure, shortened: as §1

[9] = target: GlcNAc(a1-3)Gal(b1-4)GlcNAc
Procedure, shortened: as §1

[10] = target: GlcNAc(a1-4)Gal(b1-3)GlcNAc
Procedure, shortened: as §1

[11] = target: GlcNAc(a1-4)Gal(b1-4)GalNAc
Procedure, shortened: as §1

[12] = target: GlcNAc(a1-4)Gal(b1-4)GlcNAc
Procedure, shortened: as §1

[13] = target: GlcNAc(a1-4)Gal(b1-4)GlcNAc(b1-3)Gal(b1-4)Glc
Procedure, shortened: as §1

[14] = target: GlcNAc(a1-4)Gal(b1-4)GlcNAc(b1-3)Gal(b1-4)GlcNAc
Procedure, shortened: as §1

[15] = target: GlcNAc(a1-4)Gal(b1-4)GlcNAc(b1-3)Gal(b1-4)GlcNAc(b1-3)Gal(b1-4)GlcNAc
Procedure, shortened: as §1

[16] = target: GlcNAc(a1-4)Gal(b1-4)GlcNAc(b1-3)Gal(b1-4)[Fuc(a1-3)]GlcNAc(b1-3)Gal(b1-4)[Fuc(a1-3)]GlcNAc
Procedure, shortened: as §1

[17] = target: GlcNAc(a1-6)Gal(b1-4)GlcNAc
Procedure, shortened: as §1

[18] = target: GlcNAc(b1-2)Gal(b1-3)GalNAc
Procedure, shortened: as §1

[19] = target: GlcNAc(b1-2)Man(a1-3)[GlcNAc(b1-2)Man(a1-6)]Man(b1-4)GlcNAc(b1-4)GlcNAc
Procedure, shortened: as §1

[20] = target: GlcNAc(b1-2)Man(a1-3)[GlcNAc(b1-2)Man(a1-6)]Man(b1-4)GlcNAc(b1-4)[Fuc(a1-6)]GlcNAc
Procedure, shortened: as §1

[21] = target: GlcNAc(b1-2)Man(a1-3)[GlcNAc(b1-4)][GlcNAc(b1-2)Man(a1-6)]Man(b1-4)GlcNAc(b1-4)GlcNAc
Procedure, shortened: as §1

[22] = target: GlcNAc(b1-2)Man(a1-3)[GlcNAc(b1-4)][GlcNAc(b1-2)Man(a1-6)]Man(b1-4)GlcNAc(b1-4)[Fuc(a1-6)]GlcNAc
Procedure, shortened: as §1

[23] = target: GlcNAc(b1-2)[GlcNAc(b1-4)]Man(a1-3)[GlcNAc(b1-2)Man(a1-6)]Man(b1-4)GlcNAc(b1-4)GlcNAc
Procedure, shortened: as §1

[24] = target: GlcNAc(b1-2)[GlcNAc(b1-4)]Man(a1-3)[GlcNAc(b1-4)][GlcNAc(b1-2)Man(a1-6)]Man(b1-4)GlcNAc(b1-4)GlcNAc
Procedure, shortened: as §1

[25] = target: GlcNAc(b1-2)[GlcNAc(b1-4)]Man(a1-3)[GlcNAc(b1-4)][GlcNAc(b1-2)[GlcNAc(b1-6)]Man(a1-6)]Man(b1-4)GlcNAc(b1-4)GlcNAc
Procedure, shortened: as §1

[26] = target: GlcNAc(b1-2)[GlcNAc(b1-4)]Man(a1-3)[GlcNAc(b1-4)][GlcNAc(b1-2)[GlcNAc(b1-6)]Man(a1-6)]Man(b1-4)GlcNAc(b1-4)[Fuc(a1-6)]GlcNAc
Procedure, shortened: as §1

[27] = target: GlcNAc(b1-2)[GlcNAc(b1-6)]Man(a1-6)[GlcNAc(b1-2)Man(a1-3)]Man(b1-4)GlcNAc(b1-4)GlcNAc
Procedure, shortened: as §1

[28] = target: GlcNAc(b1-2)[GlcNAc(b1-6)]Man(a1-6)[GlcNAc(b1-2)Man(a1-3)]Man(b1-4)GlcNAc(b1-4)[Fuc(a1-6)]GlcNAc
Procedure, shortened: as §1

[29] = target: GlcNAc(b1-2)[GlcNAc(b1-6)]Man(a1-6)[GlcNAc(b1-4)][GlcNAc(b1-2)Man(a1-3)]Man(b1-4)GlcNAc(b1-4)GlcNAc
Procedure, shortened: as §1

GlcNAc(b1-3)Fuc = target: GlcNAc(b1-3)Fuc
Procedure, shortened: as §1

GlcNAc(b1-3)Gal = target: GlcNAc(b1-3)Gal
Procedure, shortened: as §1

[30] = target: GlcNAc(b1-3)Gal(b1-3)GalNAc
Procedure, shortened: as §1

B1: MAL-II (Maackia amurensis), P93248 (protein)
chain: ATSNSKPTQVLLATFLTFFFLLLNNVNSSDELSFTINNFVPNEADLLFQGEASVSSTGVLQLTRVENGQPQQYSVGRALYAAPVRIWDNTTGSVASFSTSFTFVVKAPNPTITSDGLAFFLAPPDSQIPSGRVSKYLGLFNNSNSDSSNQIVAVEFDTYFGHSYDPWDPNYRHIGIDVNGIESIKTVQWDWINGGVAFATITYLAPNKTLIASLVYPSNQTSFIVAASVDLKEILPEWVRVGFSAATGYPTQVETHDVLSWSFTSTLEANSDAATENNVHIARYTA
For B1, the “glycan array binding signal (z-score)” value [1] was -0.243, the “glycan array binding signal (z-score)” value [2] was 0.265 and the “glycan array binding signal (z-score)” value [3] was -0.156. For the same binder, the “glycan array binding signal (z-score)” value (GalNAc(b1-4)GlcNAc6S) was -0.292, the “glycan array binding signal (z-score)” value (GalNAc(b1-6)GalNAc) was -0.219 and the “glycan array binding signal (z-score)” value (GalNAc3S(b1-4)GlcNAc) was -0.041. The “glycan array binding signal (z-score)” value (GalNAc3S(b1-4)GlcNAc3S) was -0.331, the “glycan array binding signal (z-score)” value [4] was -0.316 and the “glycan array binding signal (z-score)” value (GalNAc4S6S(b1-4)GlcNAc) was -0.378. The “glycan array binding signal (z-score)” value (GalNAc6S(b1-4)GlcNAc) was -0.323, the “glycan array binding signal (z-score)” value (Glc(a1-4)Glc) was -0.158 and the “glycan array binding signal (z-score)” value [5] was -0.199. For the same binder, the “glycan array binding signal (z-score)” value (Glc(a1-6)Glc(a1-6)Glc) was -0.168, the “glycan array binding signal (z-score)” value [6] was -0.072 and the “glycan array binding signal (z-score)” value (Glc(b1-4)Glc) was -0.155. For the same binder, the “glycan array binding signal (z-score)” value (Glc(b1-6)Glc) was -0.193, the “glycan array binding signal (z-score)” value (GlcA(b1-3)Gal) was -0.219 and the “glycan array binding signal (z-score)” value (GlcA(b1-3)GlcNAc) was -0.21. For the same binder, the “glycan array binding signal (z-score)” value (GlcA(b1-6)Gal) was -0.165, the “glycan array binding signal (z-score)” value [7] was -0.445 and the “glycan array binding signal (z-score)” value [8] was -0.12. For the same binder, the “glycan array binding signal (z-score)” value [9] was -0.239, the “glycan array binding signal (z-score)” value [10] was -0.216 and the “glycan array binding signal (z-score)” value [11] was -0.097. For the same binder, the “glycan array binding signal (z-score)” value [12] was -0.259, the “glycan array binding signal (z-score)” value [13] was -0.228 and the “glycan array binding signal (z-score)” value [14] was -0.195. For the same binder, the “glycan array binding signal (z-score)” value [15] was -0.233, the “glycan array binding signal (z-score)” value [16] was -0.005 and the “glycan array binding signal (z-score)” value [17] was -0.225. The “glycan array binding signal (z-score)” value [18] was -0.202, the “glycan array binding signal (z-score)” value [19] was -0.234 and the “glycan array binding signal (z-score)” value [20] was -0.189. For the same binder, the “glycan array binding signal (z-score)” value [21] was -0.141, the “glycan array binding signal (z-score)” value [22] was -0.148 and the “glycan array binding signal (z-score)” value [23] was -0.199. For the same binder, the “glycan array binding signal (z-score)” value [24] was -0.233, the “glycan array binding signal (z-score)” value [25] was -0.186 and the “glycan array binding signal (z-score)” value [26] was -0.349. The “glycan array binding signal (z-score)” value [27] was -0.206, the “glycan array binding signal (z-score)” value [28] was -0.205 and the “glycan array binding signal (z-score)” value [29] was -0.297. For the same binder, the “glycan array binding signal (z-score)” value (GlcNAc(b1-3)Fuc) was -0.209, the “glycan array binding signal (z-score)” value (GlcNAc(b1-3)Gal) was -0.227 and the “glycan array binding signal (z-score)” value [30] was -0.201.
